Measurements taken from US20260200947A1, “FUSED CYCLIC COMPOUNDS AND USE THEREOF” (Jacobio Pharmaceuticals Co., Ltd., priority 2022, published 2026).

Experiments:
GDP-KRAS G12D = GDP-KRAS G12D (Homo sapiens, UniProt P01116, G12D); assay: biochemical
GDP-KRAS G12V = GDP-KRAS G12V (Homo sapiens, UniProt P01116, G12V); assay: biochemical

C#Cc1c(F)ccc2cc(N)cc(-c3nc4c5c(nc(OC[C@@]67CCCN6C[C@H](F)C7)nc5c3F)N3CC[C@@H](O)CC[C@H]3N4C)c12 [Compound 84]
IC50 (GDP-KRAS G12D): 5.29 nM
IC50 (GDP-KRAS G12V): 2.59 nM

[2H]C#Cc1c(F)ccc2cc(N)cc(-c3nc4c5c(nc(OCC67CCCN6CC(F)C7)nc5c3F)N3CCCOCC3N4C)c12 (centres unmarked) [Compound 109]
IC50 (GDP-KRAS G12D): 0.921 nM
IC50 (GDP-KRAS G12V): 0.851 nM

[2H][C@]1(F)CCCCN2c3nc(OC[C@@]45CCCN4C[C@H](F)C5)nc4c(F)c(-c5cc(N)cc6ccc(F)c(C#C)c56)nc(c34)N(C)[C@@H]21 [Compound 95]
IC50 (GDP-KRAS G12D): 0.561 nM
IC50 (GDP-KRAS G12V): 0.727 nM

C#Cc1c(F)ccc2cc(N)cc(-c3nc4c5c(nc(OC[C@@]67CCCN6C[C@H](F)C7)nc5c3F)N3[C@@H](CC)CCOC[C@H]3CO4)c12 [Compound 65]
IC50 (GDP-KRAS G12D): 2.08 nM
IC50 (GDP-KRAS G12V): 0.601 nM

C#Cc1c(F)ccc2cc(N)cc(-c3nc4c5c(nc(OC[C@@]67CCCN6C[C@H](F)C7)nc5c3F)N3[C@@H](COCC[C@@H]3C3CC3)CO4)c12 [Compound 64]
IC50 (GDP-KRAS G12D): 0.367 nM
IC50 (GDP-KRAS G12V): 0.259 nM

C#Cc1c(F)ccc2cc(N)cc(-c3nc4c5c(nc(OC[C@@]67CCCN6C[C@H](F)C7)nc5c3F)N3CCCCC(C)C3N4C)c12 (some centres unmarked) [Compound 121]
IC50 (GDP-KRAS G12D): 2.94 nM
IC50 (GDP-KRAS G12V): 3.89 nM

C#Cc1c(F)ccc2cc(N)cc(-c3nc4c5c(nc(OC[C@@]67CCCN6C[C@H](F)C7)nc5c3F)N3CC(=C)COC[C@H]3N4C)c12 [Compound 138]
IC50 (GDP-KRAS G12D): 2.51 nM
IC50 (GDP-KRAS G12V): 1.52 nM

C#Cc1c(F)ccc2cc(N)cc(-c3nc4c5c(nc(OC[C@@]67CCCN6C[C@H](F)C7)nc5c3F)N3CC(C)COCC3N4C)c12 (some centres unmarked) [Compound 46]
IC50 (GDP-KRAS G12D): 3.28 nM
IC50 (GDP-KRAS G12V): 1.97 nM

CN1c2nc(-c3ccc(F)c4sc(N)c(C#N)c34)c(F)c3nc(OC[C@@]45CCCN4C[C@H](F)C5)nc(c23)N2CCCOC[C@@H]12 [Compound 75]
IC50 (GDP-KRAS G12D): 5.62 nM
IC50 (GDP-KRAS G12V): 4 nM

C#Cc1c(F)ccc2cc(N)cc(-c3nc4c5c(nc(O[C@@H](C)[C@@H]6[C@@H](OC)CCN6C)nc5c3F)N3CCCOC[C@H]3N4C)c12 [Compound 162]
IC50 (GDP-KRAS G12D): 8.8 nM
IC50 (GDP-KRAS G12V): 5.73 nM

C#Cc1cccc2cc(N)cc(-c3nc4c5c(nc(OC[C@@]67CCCN6C[C@H](F)C7)nc5c3F)N3CCCOC[C@H]3N4C)c12 [Compound 51]
IC50 (GDP-KRAS G12D): 0.792 nM
IC50 (GDP-KRAS G12V): 0.842 nM

C#Cc1c(F)ccc2cc(N)cc(-c3nc4c5c(nc(OCC6(CN7CCOCC7)CC6(F)F)nc5c3F)N3CCCOC[C@H]3N4C)c12 (some centres unmarked) [Compound 165]
IC50 (GDP-KRAS G12D): 10.4 nM
IC50 (GDP-KRAS G12V): 9.27 nM

C#Cc1c(F)ccc2cc(N)cc(-c3nc4c5c(nc(OC[C@@]67CCCN6C[C@H](F)C7)nc5c3F)N3[C@@H](C)CCO[C@H](C)[C@H]3N4C)c12 [Compound 122]
IC50 (GDP-KRAS G12D): 2.68 nM
IC50 (GDP-KRAS G12V): 1.39 nM

C#Cc1c(F)ccc2cc(N)cc(-c3c(Cl)c4c5c(nc(OC[C@@]67CCCN6C[C@H](F)C7)nc5c3F)N3CCCOC[C@H]3CO4)c12 [Compound 11]
IC50 (GDP-KRAS G12D): 3.49 nM
IC50 (GDP-KRAS G12V): 2.62 nM

N#Cc1c(N)sc2c(F)ccc(-c3c(C4CC4)c4c5c(nc(OC[C@@]67CCCN6C[C@H](F)C7)nc5c3F)N3CCCOC[C@H]3CO4)c12 [Compound 132]
IC50 (GDP-KRAS G12D): 3.39 nM
IC50 (GDP-KRAS G12V): 3.01 nM

C#Cc1c(F)ccc2cc(N)cc(-c3nc4c5c(nc(OC[C@@]67CCCN6C[C@H](F)C7)nc5c3F)N3CCCC[C@@H](O)[C@H]3N4C)c12 [Compound 110]
IC50 (GDP-KRAS G12D): 2.87 nM
IC50 (GDP-KRAS G12V): 2.97 nM

C#Cc1c(F)ccc2cc(N)cc(-c3nc4c5c(nc(OCC6(CN(C)C)CC6(F)F)nc5c3F)N3CCCOC[C@H]3N4C)c12 (some centres unmarked) [Compound 4]
IC50 (GDP-KRAS G12D): 2.58 nM
IC50 (GDP-KRAS G12V): 2.04 nM

C#Cc1c(F)ccc2cc(N)cc(-c3nc4c5c(nc(OC[C@@]67CCCN6C[C@H](F)C7)nc5c3F)N3CCC=CC[C@H]3CO4)c12 [Compound 37]
IC50 (GDP-KRAS G12D): 0.867 nM
IC50 (GDP-KRAS G12V): 0.535 nM

C#Cc1c(F)ccc2cc(N)cc(-c3nc4c5c(nc(OC[C@@]67CCCN6C[C@H](F)C7)nc5c3F)N3CCOCC3CC4=C)c12 (some centres unmarked) [Compound 22]
IC50 (GDP-KRAS G12D): 6.97 nM
IC50 (GDP-KRAS G12V): 5.16 nM
